# Experimental data: PubChem BioAssay AID1460 (National Center for Advancing Translational Sciences (NCATS), 2008)
# Hit rate of the full screen: of about 270,000 compounds, about 5,800 (2.1%) were called active. Inconclusive results, whose numbers are uncertain, are shown with a selection of clear calls. Calls follow the shape of the dose curve; as a rule, active = well fitted inhibition curve with a large enough effect; inconclusive = small, poorly fitted or top-dose-only effect; inactive = flat fitted curve, though single readings scatter. A potency beside an inconclusive call is a rough fit, not a confirmed value.
# Biological target: Microtubule-associated protein tau (Homo sapiens) (UniProt P10636)
# Experiment: qHTS for Inhibitors of Tau Fibril Formation, Thioflavin T Binding; also: nearly all actives have a fitted effect of over 55% in size
# Conditions: recombinant tau K18 P301L (four-repeat tau fragment), heparin-induced fibrillization, ThT fluorescence; series mostly up to 57.4 µM; activity, negative = inhibition: at the top concentration
# Procedure, shortened: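 K18 P301L tau (15 uM + 0.24 uM Alexa 594-tagged), heparin 20 uM, NaOAc pH 7, 6 h 37 C; ThT 30 uM, 1 h RT, ex 450/em 510 nm.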
# % is scaled to controls: 0 for no effect and ±100 for the full control effect; potency is read from the fitted curve at half-maximal effect; tags tell the direction and shape of the fitted curve.
# Sequence of UniProt P10636 (P10636 whole entry, looked up): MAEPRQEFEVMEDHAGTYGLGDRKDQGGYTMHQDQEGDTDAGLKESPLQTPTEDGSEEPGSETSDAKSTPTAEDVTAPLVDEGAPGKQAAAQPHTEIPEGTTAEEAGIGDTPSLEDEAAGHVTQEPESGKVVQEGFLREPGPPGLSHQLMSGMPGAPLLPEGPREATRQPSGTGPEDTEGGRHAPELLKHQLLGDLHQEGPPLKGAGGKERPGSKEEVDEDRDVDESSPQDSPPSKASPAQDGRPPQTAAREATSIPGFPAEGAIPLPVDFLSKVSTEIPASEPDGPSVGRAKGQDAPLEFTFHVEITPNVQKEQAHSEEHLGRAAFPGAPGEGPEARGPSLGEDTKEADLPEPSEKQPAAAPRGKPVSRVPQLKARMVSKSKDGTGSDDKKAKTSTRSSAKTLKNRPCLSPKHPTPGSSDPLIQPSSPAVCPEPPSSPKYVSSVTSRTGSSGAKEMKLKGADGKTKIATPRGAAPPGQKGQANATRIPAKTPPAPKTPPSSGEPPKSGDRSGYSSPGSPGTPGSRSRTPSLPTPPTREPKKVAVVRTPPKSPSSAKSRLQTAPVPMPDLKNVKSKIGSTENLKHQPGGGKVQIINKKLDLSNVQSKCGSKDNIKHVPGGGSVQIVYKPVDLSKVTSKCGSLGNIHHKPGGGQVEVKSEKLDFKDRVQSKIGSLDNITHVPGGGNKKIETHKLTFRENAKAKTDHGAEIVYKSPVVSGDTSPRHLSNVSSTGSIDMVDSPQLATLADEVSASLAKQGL
SMILES,"activity, negative = inhibition",Potency
O=C(O)c1ccc(N2CC3CC(C2)c2cccc(=O)n2C3)c(NC(=S)Nc2ccc(Cl)cc2Cl)c1 (stereo unspecified),inactive: -14.4%,–
Cc1cc(/C=C2\SC(=S)NC2=O)c(C)n1-c1ccccc1,–,active: 7.08 µM
O=C(NC(=S)Nc1ccc(N2CCN(C(=O)c3ccccc3)CC2)cc1)c1cccs1,–,"inconclusive: 15.8 µM [inhibitor, partial curve]"
Cc1ccc(NC(=O)Cn2cc(C(=O)c3cccs3)c3ccccc32)cc1C,–,"inconclusive: 2.24 µM [inhibitor, partial curve, poor fit]"
O=C1c2c(O)cccc2Cc2cccc(O)c21,–,"inconclusive: 20 µM [inhibitor, partial curve]"
O=C(Cc1nc2ccccc2[nH]1)N/N=C/c1ccccc1,inactive: -4.64%,–
CN(C)c1ccc(C(=O)Nc2nc3c(s2)CCCC3)cc1,–,active: 7.94 µM
Cc1cccc(-c2nc(N3CCN(c4ccc(F)cc4)CC3)c3ccccc3n2)c1,–,"inconclusive: 11.2 µM [inhibitor, partial curve, poor fit]"
CN1C(=O)C(C(=O)Nc2ccccc2F)c2ccccc21 (stereo unspecified),–,"inconclusive: 20 µM [inhibitor, single point]"
COC(=O)C1=C(C)NC(=O)/C1=C\c1cc(C)n(-c2cccc(C)c2)c1C,–,active: 25.1 µM
CCOc1ccc(-c2cc(C(=O)NCc3ccc(OC)cc3)c3c(-c4ccc(F)cc4)[nH]nc3n2)cc1,inactive: 6.08%,–
Cn1c(SCC(=O)N=Nc2c(O)[nH]c3ccccc23)nc2ccccc21,inactive: -4.46%,–
Cc1cccc(CSC(Nc2ccc(F)cc2)=C(C#N)C#N)c1,inactive: -16.8%,–
CCOCC(O)CNC(=O)c1ccc(OC2CCN(C(=O)c3cccnc3)CC2)cc1 (stereo unspecified),–,"inconclusive: 12.6 µM [inhibitor, single point]"
O=C(O)c1ccccc1C1=Nc2ccc(O)cc2Oc2cc(O)ccc21,inactive: -5.06%,–
OCCNCCCOc1cccc(Cl)c1Cl,inactive: -7.08%,–
O=C(Nc1nnc(S(=O)(=O)N2CCCC2)s1)c1ccc(F)cc1,–,"inconclusive: 3.55 µM [inhibitor, partial curve]"
CC(=O)C1=C(C)OC(N)=C(C#N)C1c1cc2cccc(C)c2nc1Cl (stereo unspecified),–,"inconclusive: 31.6 µM [inhibitor, single point]"
O=[N+]([O-])c1cc(/C=N/O)ccc1N1CCCC1,–,"inconclusive: 22.4 µM [inhibitor, partial curve]"
CCCCOc1ccccc1NC(=O)Cn1c(-c2cncs2)nc2ccccc21,–,"inconclusive: 1 µM [inhibitor, single point]"
COc1ccc([C@@H]2C[C@@H](c3ccccc3)Oc3cc(C)cc(C)c32)cc1,–,"inconclusive: 0.0708 µM [activator, full curve, poor fit]"
Cc1cccc(Nc2nc(N)c([N+](=O)[O-])c(N3CCN(C)CC3)n2)c1,–,"inconclusive: 25.1 µM [inhibitor, partial curve]"
Nc1nc(CSc2nnnn2-c2ccccc2)nc(N2CCCc3ccccc32)n1,inactive: -0.739%,–

SMILES,"activity, negative = inhibition",Potency
CNC(=S)Nc1ccc([N+](=O)[O-])c(C)c1,inactive: -6.48%,–
CC(C)(C)c1nnc2sc(SCC(=O)c3ccc4c(c3)OCCO4)nn2c1=O,–,"inconclusive: 17.8 µM [inhibitor, partial curve, poor fit]"
Cc1ccc(-n2ncc3c(NCCCn4ccnc4)ncnc32)cc1,–,"inconclusive: 7.08 µM [inhibitor, partial curve]"
Cc1ccc(-c2nc3ccccc3[nH]2)cc1N,–,"inconclusive: 17.8 µM [inhibitor, partial curve]"
CCOC(=O)c1[nH]c2ccccc2c1NC(=O)c1ccc(OCC)cc1,inactive: -3.8%,–
COc1ccc(CCNC(=O)CSc2nnc(CNc3ccc(Cl)cc3)o2)cc1OC,–,"inconclusive: 14.1 µM [inhibitor, partial curve]"
O=C(Oc1ccccc1)c1ccc2nsnc2c1,–,"inconclusive: 17.8 µM [inhibitor, partial curve]"
Cc1cccc2cc(C#N)c(NCCNS(=O)(=O)c3ccccc3)nc12,inactive: -2.91%,–
CCOc1ccccc1C(=O)NCC(c1ccc(N(C)C)cc1)N1CCc2ccccc21 (stereo unspecified),–,"inconclusive: 1.26 µM [inhibitor, full curve, poor fit]"
Oc1c(C(c2ccc(Cl)cc2)N2CCCC2)sc2nc(-c3ccco3)nn12 (stereo unspecified),–,"inconclusive: 35.5 µM [inhibitor, single point]"
O=C(C1CC1)N1CCN(c2ccnc3cc(Cl)ccc23)CC1,inactive: -11.2%,–
CCOc1cc(-c2ccc(OC(=O)c3ccc(Cl)cc3)c(OC)c2)cc(=O)c2c(C)oc(C)c12,inactive: -16.8%,–
O=C(N/N=C/c1cc(Br)ccc1O)c1cccc(N2CCCC2=O)c1,inactive: -13.4%,–
O=C(N=Nc1c(O)n(C2OC(=O)c3ccccc32)c2ccccc12)c1ccc(O)cc1 (stereo unspecified),–,"inconclusive: 7.08 µM [inhibitor, partial curve]"
CCCCOC(=O)c1ccc(NC(=O)CSc2nc3c(c(=O)[nH]2)CCC3)cc1,–,"inconclusive: 11.2 µM [inhibitor, partial curve]"
Cc1ccc(C)n1-c1ccc(C(=O)NCC2CCCO2)cc1 (stereo unspecified),–,"inconclusive: 44.7 µM [inhibitor, single point]"
COc1cc(-c2nc3cccc(C)n3c2Nc2ccc3c(c2)OCCO3)ccc1O,–,"inconclusive: 14.1 µM [inhibitor, partial curve]"
COC(=O)C1(NC(=O)NC2CCCCC2)CCCCC1,–,"inconclusive: 5.01 µM [inhibitor, single point]"
c1csc(-c2nc3ccccn3c2Nc2ccc3c(c2)OCCO3)c1,–,"inconclusive: 28.2 µM [inhibitor, partial curve]"
COc1ccc(S(=O)(=O)NCCS(=O)(=O)N2CCN(c3ccccc3F)CC2)cc1,inactive: -1.54%,–
CN1c2cc3c(cc2N=C(c2ccc(C(=O)O)cc2)c2ccccc21)C(C)(C)CCC3(C)C,–,"inconclusive: 28.2 µM [inhibitor, partial curve]"
Cc1cc(C)c(NC(=O)CSc2cn(CC(=O)N3CCOCC3)c3ccccc23)c(C)c1,inactive: -2.87%,–
Nc1cc([N+](=O)[O-])ccc1Nc1ccc(O)cc1,–,active: 12.6 µM
